{"source": "patent US9457029B2", "about": "“Treatment of genotyped diabetic patients with DPP-IV inhibitors such as linagliptin” (Boehringer Ingelheim International GmbH, priority 2009, dated 2016)", "key": {"[1]": {"tested_on": "Japanese patients with type 2 diabetes mellitus", "assay": "12-week placebo-controlled study of linagliptin monotherapy in Japanese patients", "type": "in vivo, human", "experimental": "Of those; 9.4%, 8.8% and 10.0%, respectively, are assessed as being drug-related. […] Body weight is unchanged with both LI 5 mg and 10 mg, −0.39 and −0.06 kg, respectively, which is not sigificantly different vs. PBO (−0.04 kg)."}, "[2]": {"tested_on": "type 2 diabetes patients of TCF7L2 rs7903146 CC, CT or TT genotype", "assay": "Association study of TCF7L2 SNP rs7903146 genotype and HbA1c response, pooled data over four studies (ANCOVA)", "type": "in vivo, human", "details": "all investigated TCF7L2 genotype patients", "text": "To assess the homogeneity of the treatment effect on the change from baseline of HbA1c after 24 weeks in the genotype subgroups defined by TCF7L2 SNP […] genotypes an analysis of covariance (ANCOVA) model including the treatment interaction with the covariate genotype is applied for pooled data over four studies. The statistical model includes 'Treatment', 'Genotype', 'Study', 'Wash-Out-Period for prior oral antidiabetic drugs (yes/no)', 'Race', as well as the interaction term 'Treatment*Genotype' as fixed effects and 'HbA1c baseline' as a linear covariate. […] Model based pair-wise comparisons between wild-type homozygous (genotype CC) and heterozygous (genotype CT) or rare homozygous (genotype TT) individuals on linagliptin or combination treatment (linagliptin+pioglitazone, linagliptin+metformin, linagliptin+metformin+a sulphonylurea) are performed. […] Results are shown as point estimates and 95% confidence intervals for the mean change in HbA1c from baseline [%] after 24 weeks as estimated by ANCOVA models. The results are given for the whole patient population of the studies (full analysis set, FAS), for the subpopulation for which genetic analyses are performed (full analysis set for pharmacogenetic analyses, FASG), as well as for the subgroups defined by genotype (CC, CT, TT) of this subpopulation. […]"}, "[3]": {"tested_on": "inadequately controlled, metformin-treated type 2 diabetic patients", "assay": "12-week randomized, double-blind study of BI 1356 add-on to metformin vs placebo or open label glimepiride", "type": "in vivo, human", "experimental": "Efficacy and safety of BI 1356 (1, 5, or 10 mg qd), a potent and selective dipeptidyl peptidase-4 (DPP-4) inhibitor, was examined in inadequately controlled, metformin-treated (MET, ≧1 g daily) type 2 diabetic patients (T2DM; HbA1c at baseline 7.5-10.0%). Effects were compared to add-on of placebo (PBO) or of open label glimepiride (GLIM; 1 to 3 mg qd) in a 12-week randomized, double-blind study. Antidiabetic medication other than metformin was washed out for 6 weeks (34.7% of the patients).\nThe primary endpoint was change from baseline in HbA1c, adjusted for prior antidiabetic medication. 333 patients (mean baseline HbA1c 8.3%; fasting plasma glucose [FPG] 185 mg/dL) were randomized to BI 1356, PBO or open-label GLIM. […] Reductions in FPG from baseline to Week 12 with BI 1356 were statistically significant (1 mg, −19 mg/dL; 5 mg, −35 mg/dL; 10 mg, −30 mg/dL). […] For this dose, >80% DPP-4 inhibition at trough in >80% of the patients at week 12 was achieved.\nIn total, 106 patients (43.1%) experienced adverse events (AEs) with similar incidences across all treatments. Most frequently reported episodes were nasopharyngitis (7.5%), diarrhoea (3.3%), and nausea (3.0%). […] Ten patients (3.7%) experienced serious AEs but none of these events were considered drug-related."}, "[4]": {"tested_on": "patients with type 2 diabetes mellitus", "assay": "24-week placebo-controlled study of linagliptin monotherapy"}}, "data": [{"smiles": "CC#CCn1c(N2CCC[C@@H](N)C2)nc2c1c(=O)n(Cc1nc(C)c3ccccc3n1)c(=O)n2C", "note": "[linagliptin, 1-[(4-methyl-quinazolin-2-yl)methyl]-3-methyl-7-(2-butyn-1-yl)-8-(3-(R)-amino-piperidin-1-yl)-xanthine]", "values": [{"measurement": "investigator-defined hypoglycemic episodes", "setting": "[1]; LI 5 mg and 10 mg, 12 weeks", "result": "no investigator-defined hypoglycemic episodes"}, {"measurement": "difference of adjusted mean change from baseline in HbA1c vs. PBO", "setting": "[1]; LI 5 mg qd, week 12", "result": "−0.87", "unit": "%"}, {"measurement": "AEs assessed as being drug-related", "setting": "[1]; LI 5 mg, 12 weeks", "result": 9.4, "unit": "%"}, {"measurement": "body weight change", "setting": "[1]; LI 5 mg, 12 weeks", "result": -0.39, "unit": "kg"}, {"measurement": "AEs assessed as being drug-related", "setting": "[1]; LI 10 mg, 12 weeks", "result": 8.8, "unit": "%"}, {"measurement": "proportion of patients experiencing at least one adverse event (AE)", "setting": "[1]; LI 10 mg, 12 weeks", "result": 53.1, "unit": "%"}, {"measurement": "response in patients with TCF7L2 rs7903146 CT or TT risk genotype or CC wild genotype", "setting": "[2]", "result": "clinically meaningful response"}, {"measurement": "reduction in FPG from baseline to Week 12", "setting": "[3]; BI 1356 10 mg qd add-on to metformin", "result": -30, "unit": "mg/dL"}, {"measurement": "drug-related hypoglycaemia", "setting": "[3]; BI 1356 1, 5 or 10 mg qd add-on to metformin, 12 weeks", "result": "did not occur"}, {"measurement": "tolerability", "setting": "[3]; combination treatment with BI 1356 1, 5, and 10 mg and MET", "result": "well tolerated"}, {"measurement": "change in HOMA-% B index", "setting": "[4]; 5 mg qd monotherapy", "result": "5.02 (mU/L)/(mmol/L)"}, {"measurement": "change in disposition index", "setting": "[4]; 5 mg qd monotherapy", "result": 3.05}, {"measurement": "PBO-adjusted change in HbA1c from baseline", "setting": "[4]; 5 mg qd monotherapy, 6 weeks", "result": "−0.46", "unit": "%"}, {"measurement": "FPG change vs. PBO", "setting": "[4]; 5 mg qd monotherapy, 24 weeks", "result": -23.3, "unit": "mg/dL"}, {"measurement": "PBO-adjusted change in HbA1c from baseline", "setting": "[4]; 5 mg qd monotherapy, 24 weeks", "result": "−0.69", "unit": "%"}, {"measurement": "changes in body weight or waist circumference", "setting": "[4]; 5 mg qd monotherapy, 24 weeks", "result": "no clinically significant changes"}, {"measurement": "hypoglycemia, number of patients", "setting": "[4]; 5 mg qd monotherapy, 24 weeks", "result": 1, "unit": "patients"}, {"measurement": "likelihood to achieve a reduction in HbA1c of ≧0.5% relative to PBO", "setting": "[4]; 5 mg qd monotherapy, 24 weeks", "result": "> 4", "unit": "fold"}, {"measurement": "patients achieving a reduction in HbA1c of ≧0.5%", "setting": "[4]; 5 mg qd monotherapy, 24 weeks", "result": 47.1, "unit": "%"}, {"measurement": "proportion of patients reporting at least one adverse event (AE)", "setting": "[4]; 5 mg qd monotherapy, 24 weeks", "result": 52.4, "unit": "%"}, {"measurement": "serious AEs", "setting": "[4]; 5 mg qd monotherapy, 24 weeks", "result": 3.0, "unit": "%"}, {"measurement": "2-hr postprandial glucose (PPG), adjusted mean change from baseline vs. PBO", "setting": "[4]; 5 mg qd, meal tolerance test, week 24", "result": -58.4, "unit": "mg/dL"}, {"measurement": "patients achieving a target reduction of HbA1c to <7.0%", "setting": "[4]; 5 mg qd, patients with baseline HbA1c ≧7.0%, 24 weeks", "result": 25.2, "unit": "%"}, {"measurement": "reduction in HbA1c from baseline", "setting": "[4]; 5 mg qd, patients with baseline HbA1c ≧9.0%", "result": "−0.86", "unit": "%"}]}]}
